From the supplement of paper PMC3722116 come the findings set out here.

Growth of fresh clinical P. falciparum isolates by hypoxanthine uptake over 42 h; for most isolates 1.6-1,647 nM mefloquine, 0.044-87 nM artesunate, 10-10,256 nM chloroquine, 2.4-236 nM lumefantrine. EC50, lower = more sensitive; slope from the same fit, higher = steeper. No active / inactive call. Fits with a coefficient of variation above 100% are not listed here; 15-28% of fits exceed 15%. Isolates are numbered anew.

Compound in assay [1]: T1, C[C@H]1[C@H](OC(=O)CCC(=O)O)O[C@@H]2O[C@@]3(C)CC[C@H]4[C@H](C)CC[C@@H]1[C@@]24OO3 [artesunate]
Kind of assay: slope of the dose-response curve (dimensionless); higher = steeper concentration-effect curve. Here is the method: (§1)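 Hypoxanthine uptake by fresh isolates, duplicate serial dilutions, 24 h of drug plus 18 h after the label; sigmoid fit per isolate.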

Compound in assay [2]: T2, OC(c1cc(C(F)(F)F)nc2c(C(F)(F)F)cccc12)C1CCCCN1 [mefloquine]
The description is as above. The procedure: as §1

Compound in assay [3]: T3, CCCCN(CCCC)CC(O)c1cc(Cl)cc2c1-c1ccc(Cl)cc1/C2=C/c1ccc(Cl)cc1 [lumefantrine]
The assay is described as above. Here is the method:
as §1

Compound in assay [4]: T1, artesunate
The procedure:
as §1

Compound in assay [5]: T2, mefloquine
The procedure: as §1

Compound in assay [6]: T3, lumefantrine
The procedure: as §1

Compound in assay [7]: T4, CCN(CC)CCCC(C)Nc1ccnc2cc(Cl)ccc12 [chloroquine]
Kind of assay: slope of the dose-response curve (dimensionless); higher = steeper concentration-effect curve. Here is the method:
as §1

Compound in assay [8]: T4, chloroquine
The procedure: as §1

Take “Plasmodium falciparum isolate 99 (pfmdr1 allele: 86N, 1042N, pfmdr1 copies: 1)”: the slope was 4.13 with artesunate [1], 2.2 in the assay with mefloquine [2] and 1.6 with lumefantrine [3]. For the same test system, the figures for the “EC50 of parasite growth” value with artesunate [4], with mefloquine [5] and in the assay with lumefantrine [6] were 0.00123 µg/mL, 0.0366 µg/mL and 0.0403 µg/mL, respectively.

As to “Plasmodium falciparum isolate 225 (pfmdr1 allele: 86N, 1042N, pfmdr1 copies: 1)”, the slope is 3.45 in the assay with artesunate [1], 2.03 in the assay with mefloquine [2] and 3.09 with lumefantrine [3]. The “EC50 of parasite growth” value stood at 0.00151 µg/mL with artesunate [4], 0.0114 µg/mL with mefloquine [5] and 0.0373 µg/mL with lumefantrine [6].

Regarding “Plasmodium falciparum isolate 441 (pfmdr1 allele: 86N, 1042N, pfmdr1 copies: 1)”, the figures for the slope with mefloquine [2] and with lumefantrine [3] were 2.32 and 7.58, respectively. Further, the “EC50 of parasite growth” value came out at 0.0217 µg/mL in the assay with mefloquine [5] and 0.0775 µg/mL with lumefantrine [6].

“Plasmodium falciparum isolate 126 (pfmdr1 allele: 86N, 1042N, pfmdr1 copies: 3)”: the slope with artesunate [1] came out at 10; in the assay with mefloquine [2], 0.943; with lumefantrine [3] it was 2.83. The “EC50 of parasite growth” value was 0.00305 µg/mL with artesunate [4], 0.00607 µg/mL with mefloquine [5] and 0.0412 µg/mL with lumefantrine [6].

As to “Plasmodium falciparum isolate 329 (pfmdr1 allele: 86N, 1042N, pfmdr1 copies: 1)”, the figures for the slope in the assay with artesunate [1], with mefloquine [2] and with lumefantrine [3] were 4.26, 2.75 and 2.12, respectively. Also, the “EC50 of parasite growth” value came out at 0.00125 µg/mL in the assay with artesunate [4], 0.0277 µg/mL in the assay with mefloquine [5] and 0.0302 µg/mL in the assay with lumefantrine [6].

“Plasmodium falciparum isolate 397 (pfmdr1 allele: 86Y, pfmdr1 copies: 1)”: the slope was 5.42 with artesunate [1], 3.99 with mefloquine [2] and 3.44 in the assay with lumefantrine [3]. In addition, the “EC50 of parasite growth” value worked out at 0.000671 µg/mL in the assay with artesunate [4], 0.00426 µg/mL in the assay with mefloquine [5] and 0.0172 µg/mL in the assay with lumefantrine [6].

As for “Plasmodium falciparum isolate 165 (pfmdr1 allele: 86N, 1042N, pfmdr1 copies: 2)”, the slope was 10 with artesunate [1], 1.87 in the assay with mefloquine [2] and 2.53 in the assay with chloroquine [7]. Also, the “EC50 of parasite growth” value came out at 0.0029 µg/mL in the assay with artesunate [4], 0.0382 µg/mL in the assay with mefloquine [5] and 0.127 µg/mL with chloroquine [8].

For the test system “Plasmodium falciparum isolate 158 (pfmdr1 allele: 86N, 1042N, pfmdr1 copies: 1)”, the slope with artesunate [1] turned out to be 2.56; with mefloquine [2] it was 4.32; with chloroquine [7], 3.26. The results for the “EC50 of parasite growth” value with artesunate [4], with mefloquine [5] and with chloroquine [8] were 0.000557 µg/mL, 0.0175 µg/mL and 0.473 µg/mL, respectively.

As to “Plasmodium falciparum isolate 291 (pfmdr1 allele: 86N, 1042N, pfmdr1 copies: 4)”, the values for the slope with artesunate [1], with mefloquine [2] and with chloroquine [7] were 10, 9.98 and 5.92, respectively. The “EC50 of parasite growth” value is 0.00329 µg/mL in the assay with artesunate [4], 0.109 µg/mL in the assay with mefloquine [5] and 0.196 µg/mL with chloroquine [8].

With “Plasmodium falciparum isolate 71 (pfmdr1 allele: 86N, 1042N, pfmdr1 copies: 1)”, the figures for the slope with artesunate [1], in the assay with mefloquine [2] and with chloroquine [7] were 7.54, 2.36 and 3.31, respectively. The entries for the “EC50 of parasite growth” value in the assay with artesunate [4], in the assay with mefloquine [5] and with chloroquine [8] were 0.000433 µg/mL, 0.00963 µg/mL and 0.0947 µg/mL, respectively.

For the test system “Plasmodium falciparum isolate 282 (pfmdr1 allele: 86N, 1042N, pfmdr1 copies: 2)”, the results for the slope in the assay with artesunate [1], in the assay with mefloquine [2] and in the assay with chloroquine [7] were 2.23, 1.03 and 1.9, respectively. In addition, the “EC50 of parasite growth” value with artesunate [4] turned out to be 0.000219 µg/mL; with mefloquine [5], 0.00165 µg/mL; with chloroquine [8], 1.12 µg/mL.

On to “Plasmodium falciparum isolate 320 (pfmdr1 allele: 86N, 1042N, pfmdr1 copies: 3)”, for which the slope turned out to be 3.89 in the assay with mefloquine [2] and 2.61 in the assay with lumefantrine [3]. For the same test system, the “EC50 of parasite growth” value with mefloquine [5] is 0.0608 µg/mL; with lumefantrine [6], 0.0868 µg/mL.

On to “Plasmodium falciparum isolate 168 (pfmdr1 allele: 86N, 1042N, pfmdr1 copies: 1)”, for which the slope with artesunate [1] is 4.65; in the assay with mefloquine [2], 4.09; in the assay with chloroquine [7] it was 5.15. The “EC50 of parasite growth” value with artesunate [4] was 0.00351 µg/mL; with mefloquine [5], 0.0291 µg/mL; with chloroquine [8], 0.139 µg/mL.

Consider “Plasmodium falciparum isolate 358 (pfmdr1 allele: 86N, 1042N, pfmdr1 copies: 4)”, for which the slope with artesunate [1] is 1.81; in the assay with mefloquine [2] it was 1.39; in the assay with chloroquine [7] it was 2.42. Moreover, the “EC50 of parasite growth” value with artesunate [4] stood at 0.000933 µg/mL; in the assay with mefloquine [5], 0.0218 µg/mL; with chloroquine [8], 0.272 µg/mL.

As for “Plasmodium falciparum isolate 81 (pfmdr1 allele: 86N, 1042N, pfmdr1 copies: 2)”, the slope with artesunate [1] was determined as 9.96; in the assay with mefloquine [2], 2.29; in the assay with chloroquine [7] it was 2.99. Moreover, the results for the “EC50 of parasite growth” value with artesunate [4], with mefloquine [5] and with chloroquine [8] were 0.00331 µg/mL, 0.173 µg/mL and 0.228 µg/mL, respectively.

Consider “Plasmodium falciparum isolate 40 (pfmdr1 allele: 86N, 1042N, pfmdr1 copies: 1)”, for which the values for the slope with artesunate [1], with mefloquine [2] and with chloroquine [7] were 3.62, 2.97 and 3.32, respectively. Further, the “EC50 of parasite growth” value with artesunate [4] stood at 0.000942 µg/mL; with mefloquine [5], 0.00622 µg/mL; with chloroquine [8], 0.0419 µg/mL.

As to “Plasmodium falciparum isolate 123 (pfmdr1 allele: 86N, 1042N, pfmdr1 copies: 2)”, the slope with artesunate [1] was 1.32; with mefloquine [2], 1.68; with chloroquine [7] it was 1.42. The “EC50 of parasite growth” value stood at 0.00196 µg/mL with artesunate [4], 0.0167 µg/mL with mefloquine [5] and 0.068 µg/mL in the assay with chloroquine [8].

For the test system “Plasmodium falciparum isolate 63 (pfmdr1 allele: 86N, 1042N, pfmdr1 copies: 2)”, the slope with artesunate [1] was 3.05; with mefloquine [2], 2.87; in the assay with chloroquine [7] it was 1.41. Also, the “EC50 of parasite growth” value with artesunate [4] turned out to be 0.00137 µg/mL; with mefloquine [5] it was 0.0572 µg/mL; in the assay with chloroquine [8], 0.0397 µg/mL.

Regarding “Plasmodium falciparum isolate 202 (pfmdr1 allele: 86N, 1042N, pfmdr1 copies: 1)”, the slope with artesunate [1] is 2.24; in the assay with mefloquine [2], 2.46; with chloroquine [7], 4.29. Further, the “EC50 of parasite growth” value in the assay with artesunate [4] is 0.000715 µg/mL; in the assay with mefloquine [5], 0.0156 µg/mL; with chloroquine [8], 0.227 µg/mL.

On to “Plasmodium falciparum isolate 199 (pfmdr1 allele: 86N, 1042N, pfmdr1 copies: 1)”, for which the slope with artesunate [1] was determined as 3; in the assay with mefloquine [2] it was 1.91; with chloroquine [7], 3.42. The “EC50 of parasite growth” value came out at 0.000659 µg/mL with artesunate [4], 0.0323 µg/mL in the assay with mefloquine [5] and 0.123 µg/mL with chloroquine [8].

“Plasmodium falciparum isolate 55 (pfmdr1 allele: 86N, 1042N, pfmdr1 copies: 1)”: the slope with artesunate [1] was 4.01; with mefloquine [2], 2.04; with chloroquine [7], 2.9. For the same test system, the figures for the “EC50 of parasite growth” value with artesunate [4], with mefloquine [5] and in the assay with chloroquine [8] were 0.00075 µg/mL, 0.0062 µg/mL and 0.0457 µg/mL, respectively.
